# Results reported in PubChem BioAssay AID1347165 (National Center for Advancing Translational Sciences (NCATS), 2019).
# Out of some 220,000 compounds screened, about 5,700 (2.6%) were called active. This list was built around the results that the source calls inconclusive (neither active nor inactive); the mix of calls is not that of the screen. Calls come from the whole dose curve; as a rule, active = well fitted inhibition curve with a large enough effect; inconclusive = small, poorly fitted or top-dose-only effect; inactive = no such curve, though single readings can be large or run the other way. A potency beside an inconclusive call is a rough fit, not a confirmed value.
# Target: Lysine-specific demethylase 5B (Homo sapiens) (UniProt Q9UGL1)
# Sequence of UniProt Q9UGL1 (Q9UGL1 whole entry, looked up): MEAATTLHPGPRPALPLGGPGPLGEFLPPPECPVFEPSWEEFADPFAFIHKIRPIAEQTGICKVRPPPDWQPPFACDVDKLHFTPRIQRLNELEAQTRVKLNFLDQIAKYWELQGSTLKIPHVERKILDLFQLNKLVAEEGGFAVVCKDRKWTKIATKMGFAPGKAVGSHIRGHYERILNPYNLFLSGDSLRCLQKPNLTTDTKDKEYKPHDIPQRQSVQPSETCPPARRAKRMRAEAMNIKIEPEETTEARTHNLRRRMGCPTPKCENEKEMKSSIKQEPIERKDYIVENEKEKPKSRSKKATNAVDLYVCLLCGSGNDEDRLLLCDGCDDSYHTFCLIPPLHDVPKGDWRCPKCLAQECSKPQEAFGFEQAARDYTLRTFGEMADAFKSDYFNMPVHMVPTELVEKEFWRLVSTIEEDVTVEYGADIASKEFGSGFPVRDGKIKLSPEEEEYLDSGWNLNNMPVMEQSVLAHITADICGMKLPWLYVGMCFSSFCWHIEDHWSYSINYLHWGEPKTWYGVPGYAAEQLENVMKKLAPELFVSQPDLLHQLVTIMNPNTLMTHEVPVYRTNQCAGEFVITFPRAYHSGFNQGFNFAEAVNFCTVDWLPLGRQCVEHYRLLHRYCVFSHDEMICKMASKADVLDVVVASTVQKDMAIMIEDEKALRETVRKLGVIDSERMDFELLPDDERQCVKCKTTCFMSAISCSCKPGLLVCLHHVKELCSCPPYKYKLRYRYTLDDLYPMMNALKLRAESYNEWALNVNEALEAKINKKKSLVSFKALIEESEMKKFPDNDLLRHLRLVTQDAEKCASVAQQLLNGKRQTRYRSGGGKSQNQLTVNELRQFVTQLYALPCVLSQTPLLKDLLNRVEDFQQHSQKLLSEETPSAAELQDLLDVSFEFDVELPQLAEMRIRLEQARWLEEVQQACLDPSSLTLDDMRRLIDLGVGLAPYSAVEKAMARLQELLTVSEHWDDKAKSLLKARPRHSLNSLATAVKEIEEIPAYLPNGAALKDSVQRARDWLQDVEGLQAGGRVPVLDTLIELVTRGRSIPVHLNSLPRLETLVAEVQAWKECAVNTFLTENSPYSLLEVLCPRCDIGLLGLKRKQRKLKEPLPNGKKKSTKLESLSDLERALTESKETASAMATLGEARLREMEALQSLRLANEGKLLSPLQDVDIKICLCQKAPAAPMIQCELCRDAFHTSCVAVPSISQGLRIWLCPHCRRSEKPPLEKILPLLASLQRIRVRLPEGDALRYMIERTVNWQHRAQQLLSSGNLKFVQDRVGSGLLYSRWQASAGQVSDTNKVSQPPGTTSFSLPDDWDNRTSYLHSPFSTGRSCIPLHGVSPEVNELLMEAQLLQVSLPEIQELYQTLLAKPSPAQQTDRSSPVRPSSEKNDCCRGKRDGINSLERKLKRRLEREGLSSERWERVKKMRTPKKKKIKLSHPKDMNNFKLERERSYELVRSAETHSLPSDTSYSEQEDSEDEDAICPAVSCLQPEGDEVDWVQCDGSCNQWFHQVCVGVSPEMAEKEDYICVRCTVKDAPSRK
# Assay: Primary screen for KDM5B Histone Demethylases FDH-coupled qHTS; note: nearly all actives have a fitted effect of over 70% in size; for activity change, negative = inhibition: 0% is about no effect
# Conditions: FDH-coupled NADH fluorescence (FDH is formaldehyde dehydrogenase); activity change, negative = inhibition: at 57.7 µM (top of the series) unless noted
# How it was run: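 Coupled FDH/NAD⁺ fluorescence readout. KDM5BΔAP 200 nM final; compound titration, 10 min RT preincubation; substrate mix 12.5 µM H3K4me3, 25 µM 2-OG, 50 µM Fe(II), 100 µM ascorbate, 0.25 mM NAD⁺, 0.25 U/mL FDH; ΔRFU over 30 min.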
# Potency is the fitted concentration of half-maximal effect; tags give direction and shape of the fitted curve.
SMILES,Potency,"activity change, negative = inhibition"
Cc1ccc(C2Cn3nnc(-c4noc(-c5ccc[nH]5)n4)c3CO2)cc1 (stereo not drawn),"inconclusive: 31.6 µM [inhibitor, single point]",
Cc1cc(C(=O)N2CCOCC2)c2c(C3CCCN3)noc2n1 (stereo not drawn),"inconclusive: 89.1 µM [inhibitor, partial curve, poor fit]",
COc1ccc(CNC(=O)c2nc(-c3ccc4cc[nH]c4c3)no2)cc1OC,,inactive: 3.47%
O=C(C1CCCO1)N1CCc2c(n(Cc3cccnc3)n(CCc3ccccc3)c2=O)C1 (stereo not drawn),,inactive: -20% [at 86.2 µM]
CC(C)N1C[C@@H]2OCC(=O)N(CC3CCCCC3)[C@@H]2C1,"inconclusive: 31.6 µM [inhibitor, partial curve, poor fit]",
CCN(CC)C(=O)CSc1nnc2[nH]c(=O)cc(C)n12,,inconclusive: -31.1% [inhibitor]
O[C@@H]1C[C@@H](c2nnc3n2CCN(Cc2ccccn2)C3)N(Cc2ccccc2)C1,"inconclusive: 12.6 µM [inhibitor, partial curve]",
CCOC(=O)N1CCc2c(sc(NCc3cccs3)c2C(=O)Nc2cc(OC)ccc2OC)C1,"inconclusive: 25.1 µM [inhibitor, partial curve, poor fit]",
CC(C)c1ccc(Nc2cc(C(=O)NCc3cccs3)c3ccccc3n2)cc1,"inconclusive: 15.8 µM [inhibitor, partial curve, poor fit]",
Cc1ccc(Nc2nc(-c3ccncc3)nc3ccccc23)cc1,"inconclusive: 39.8 µM [inhibitor, partial curve, poor fit]",
CCCn1cc2c3c(cccc31)CN(C(=O)COc1ccc(F)cc1)CC2,active: 31.6 µM,
CCc1cc(=O)oc2cc(C)cc(OCC(=O)NCCN3CCOCC3)c12,"inconclusive: 10 µM [inhibitor, partial curve, poor fit]",
CC(C)NC(=O)c1cnc2n[nH]c(-c3ccccc3)c2n1,"inconclusive: 20 µM [inhibitor, partial curve, poor fit]",
COc1ccc(-c2cc3ccc(OC)cc3oc2=O)cc1,"inconclusive: 39.8 µM [inhibitor, partial curve, poor fit]",
CCOC(=O)C(NC(=O)c1ccccc1)(Nc1ccccc1OC)C(F)(F)F (stereo not drawn),,inactive: 15.4%
O=C(CNc1nc(Nc2ccccc2)nc(Nc2ccccc2)n1)Nc1ccccc1,,inactive: -25%
COc1ccccc1C1=NOC(COc2ccc3c(C)cc(=O)oc3c2)C1 (stereo not drawn),"inconclusive: 39.8 µM [inhibitor, single point]",
COC(=O)[C@H](C)NC(=O)Nc1ccc2oc(-c3cccnc3)nc2c1,"inconclusive: 5.62 µM [inhibitor, full curve, poor fit]",
N#CNC(=Nc1cccc(Cl)c1)Oc1ccccc1,"inconclusive: 39.8 µM [inhibitor, partial curve, poor fit]",
CC(C)(C)c1ccc(-c2cc(C[C@H]3CNCC[C@H]3CC(=O)NC3CCCCC3)no2)cc1,"inconclusive: 39.8 µM [inhibitor, partial curve, poor fit]",
CN1C[C@H](O)C[C@H]1c1nnc2n1CCN(C(=O)c1nccc3ccccc13)CC2,"inconclusive: 17.8 µM [inhibitor, single point]",

SMILES,Potency,"activity change, negative = inhibition"
CC(=O)NCc1ccc(-c2cc(NC3CCCC3)nc3[nH]ccc23)nc1,"inconclusive: 22.4 µM [inhibitor, single point]",
O=C1[C@@H]2C[C@@H](O)CN2C2(CN(C3CCC(F)(F)CC3)C2)C(=O)N1Cc1ccccc1,,inactive: 5.55% [at 86.2 µM]
COc1ccc(CNC(=O)c2ccc(Sc3ccc(Cl)cc3)c(NC(C)=O)c2)c(OC)c1,"inconclusive: 15.8 µM [inhibitor, partial curve, poor fit]",
O=C(Cc1ccsc1)N1CCCC(Cc2nc(C3CCOCC3)no2)C1 (stereo not drawn),"inconclusive: 31.6 µM [inhibitor, single point]",
CN1CC(=O)N(C2CCCNCC2)Cc2c1ncnc2N1CCN(Cc2ccccc2)CC1 (stereo not drawn),"inconclusive: 50.1 µM [inhibitor, partial curve]",
O=C(Nc1cccc(C(F)(F)F)c1)c1nc2c(o1)CCN(Cc1ccccc1)CC2,active: 22.4 µM,
CCN(CC)C(=O)CC[C@@H]1CNC(=O)[C@@H]2C[C@H](NCc3cccs3)CN12,"inconclusive: 28.2 µM [inhibitor, partial curve, poor fit]",
O=C(CCC[C@H]1NC[C@@H]2C[C@H]1CN(Cc1ccccc1)C2)NCCCn1cccn1,,inactive: -6.98%
CNC(=O)COC(=O)c1cc(-c2ccc(C)o2)nc2ccccc12,"inconclusive: 14.1 µM [inhibitor, partial curve, poor fit]",
CCN1c2cc(C(=O)Nc3ccc(OC)c(Cl)c3)ccc2C(=O)N2CCCCC21 (stereo not drawn),"inconclusive: 28.2 µM [inhibitor, partial curve, poor fit]",
CCc1ccc2oc(=O)cc(CN3CCCCCC3)c2c1,,inactive: 20.1%
Cc1cc2oc(=O)cc(CSc3nnc4ccccn34)c2cc1C(C)C,,inactive: 1.66%
Cn1cc(C(=O)NC2(C)CCS(=O)(=O)C2)c2ccccc21 (stereo not drawn),,inactive: 1.47%
COc1ccccc1-c1cc(=O)c2cc(NS(=O)(=O)c3ccc(Cl)cc3)ccc2o1,"inconclusive: 28.2 µM [inhibitor, partial curve, poor fit]",
Cc1ccc(C)c(C(=O)Nc2ccc(N(C)C)cc2)c1,,inactive: 10.2%
COC(=O)c1ccc2oc(=O)c(S(=O)(=O)c3ccc(C)cc3)cc2c1,"inconclusive: 2.51 µM [inhibitor, partial curve, poor fit]",
O=C1CCCN1CC1CCN(C(=O)c2ccc(N3CC[C@H](O)C3)nc2)CC1,"inconclusive: 22.4 µM [inhibitor, single point]",
O=C(c1cc(-c2ccccc2F)cc2c1OCCN2Cc1cccnc1)N1CCC1,"inconclusive: 28.2 µM [inhibitor, partial curve, poor fit]",
CC(=O)Nc1cccc(-c2nnc(SCC(=O)c3cc([N+](=O)[O-])ccc3Br)o2)c1,"inconclusive: 1.12 µM [inhibitor, partial curve, poor fit]",
CC(C)(Oc1nn(Cc2cccc(Cl)c2)c2ccccc12)C(=O)N1CC(O)C1,"inconclusive: 39.8 µM [inhibitor, partial curve]",
COc1cc(C(c2c(C)[nH][nH]c2=O)c2c(C)[nH][nH]c2=O)ccc1OC(=O)c1ccccc1F,"inconclusive: 1.78 µM [inhibitor, full curve, poor fit]",

SMILES,Potency,"activity change, negative = inhibition"
COc1ccc(-c2noc(C(C)NC(=O)c3ccco3)n2)cc1 (stereo not drawn),"inconclusive: 2.24 µM [inhibitor, partial curve, poor fit]",
CC(=O)NC1=NN(C(C)=O)C(c2ccccc2OCc2ccccc2Cl)S1 (stereo not drawn),,inactive: 4.05%
Fc1ccc(-n2ncc3c(Nc4ccc(Oc5ccccc5)cc4)ncnc32)cc1,"inconclusive: 15.8 µM [inhibitor, partial curve, poor fit]",
Cc1cccc2c1-c1sc(C(=O)NCCCN3CCN(c4cccc(Cl)c4)CC3)cc1CO2,"inconclusive: 28.2 µM [inhibitor, partial curve, poor fit]",
O=C(CCn1ccc2cc(S(=O)(=O)N3CCCCC3)ccc21)NCCN1CCCCCC1,,inactive: -22.1%
COc1cc2ncn(CCC(=O)N3CCSCC3)c(=O)c2cc1OC,,inactive: 14.6%
CCCCSc1nc2c(c(=O)[nH]c(=O)n2C)n1CC(O)COc1ccc(CC)cc1 (stereo not drawn),,inactive: -17.4%
O=C(CCn1cccn1)N1CC(F)(F)C[C@H]1c1nc(C2CC2)no1,,inactive: 9.36%
CCN1C(=O)Cc2ccccc2C1C(=O)N(C)Cc1ccco1 (stereo not drawn),"inconclusive: 22.4 µM [inhibitor, partial curve, poor fit]",
CCc1ccc(Oc2coc3cc(OC(=O)OC)ccc3c2=O)cc1,"inconclusive: 28.2 µM [inhibitor, single point]",
COc1ccc(NC(=O)CCc2c(C)nc3c(-c4ccccc4)c(C)nn3c2C)cc1Cl,"inconclusive: 39.8 µM [inhibitor, single point]",
Cn1c(C(=O)NCc2ccc(Cl)cc2)cc2c(=O)n(C)c3ccccc3c21,"inconclusive: 28.2 µM [inhibitor, partial curve, poor fit]",
Cc1ccc(C)c(Nc2cc(C)nc(-c3ccccc3O)n2)c1,"inconclusive: 39.8 µM [inhibitor, single point]",
O=C(Nc1ccc(Cl)cc1)c1nc2c(o1)CCN(Cc1ccccc1)CC2,active: 31.6 µM,
Fc1cccc(Nc2nc(NCc3ccco3)nc3c2cnn3-c2ccccc2)c1,"inconclusive: 25.1 µM [inhibitor, partial curve, poor fit]",
COc1ccc(CCCNC(=O)c2ccc(N3CCC(N(C)C)C3)nc2)cc1 (stereo not drawn),"inconclusive: 15.8 µM [inhibitor, partial curve, poor fit]",
COc1ccc(Nc2ncc(C(=O)Nc3cc(C)ccc3OC)c3ccccc23)cc1,"inconclusive: 35.5 µM [inhibitor, partial curve, poor fit]",
COc1cccc(C(=O)NC(c2ccc(Cl)cc2)c2cc(Cl)c3cccnc3c2O)c1 (stereo not drawn),"inconclusive: 15.8 µM [inhibitor, partial curve, poor fit]",
CC(C)C(NC(=O)c1cccc(C#N)c1)C(=O)N1CCN(c2ccccn2)CC1 (stereo not drawn),"inconclusive: 22.4 µM [inhibitor, single point]",
COc1ccc(F)cc1NC(=O)C1CCN(c2nc(-c3ccc(OC)c(OC)c3)no2)CC1,,inactive: 146%
Cc1c(CCC(=O)NCc2ccc(F)cc2)c(=O)oc2c(C)c(O)ccc12,"inconclusive: 1.78 µM [inhibitor, partial curve, poor fit]",
